Assay results published in the supplement of paper PMC11417369.
± gives the standard deviation of the averaged measurements. This is one part of the list.

tested on: PfAP2-EXP AP2 domain (GST-tagged); assay: gcPBM binding intensity (ln(normalized median fluorescence intensity)); higher = stronger DNA binding
In short: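 Binding intensity is defined as the maximum Masliner-normalised natural-log median intensity across replicate spots for either probe orientation. It was measured on an Agilent 4 × 180k array of primer-extended double-stranded 36-bp intergenic genomic probes and negative controls, to which GST-tagged P. falciparum DNA-binding domains made in E. coli were applied for 1 h in 1× PBS with 1% milk, 0.2 mg/ml BSA, 0.5% salmon testes DNA and 0.03% Triton X-100. Detection was by Alexa488 anti-GST antibody and scanning at 488 nm.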

Row | Sequence | gcPBM binding intensity (ln)
1 | TATTTCATCTTTTAAGAAGGTACCCATATGTCATAT [GTGCAC_negctrl_site403] | 8.63 ± 0.42
2 | ATAATAAGGTTAAGCACACATATTACATATATAACT [CACACA_site3356] | 8.48 ± 0.31
3 | GAACGATATATTATATGTACATATATATATATATAT [XGTACX_site394] | 10 ± 0.53
4 | TCGTTTCATAATATTGTGCACATATATATTTACAAT | 9.41 ± 0.23
5 | TGCCCTTTGGTTATAACACACATGCACCCGTAAATA [CACACA_site3842] | 9.16 ± 0.13
6 | TAATAAAAAGTTGAGGTGCATATAGAGTTCTTCTTT [GTGCAC_site9508] | 8.56 ± 0.12
7 | ATATTTTATATAATAGTGCAAATAATATTAAATAAT | 8.66 ± 0.21
8 | ATTATAATATTTAATTGTACTTGTATTTATTCCAAA [XGTACX_site6417] | 8.4 ± 0.38
9 | AAAAAAAATATATTACAAAACTTAGGATCCTAATAT [CACACA_negctrl_site470] | 8.48 ± 0.39
10 | AATAAATATATTAAAAGTACACAAATATTATTTAAT [XGTACX_site2482] | 8.57 ± 0.35
11 | AAGATTAAACATTGCACACAAAAACATATTTTCTAT [CACACA_site530] | 8.38 ± 0.31
12 | CACATAAAATAAGGTGCATGCAAACGAGAAAATAAA [TGCATGCA_site75] | 10.5 ± 0.11
13 | ATATATATATAATAATGTACTTATAATAGATGTGTA [XGTACX_site4677] | 9.44 ± 0.26
14 | AATATATAAGCTGTTCTATTCAAGAATTATATCTTA [CACACA_negctrl_site270] | 8.15 ± 0.5
15 | AGAAGATTAAACATTGCACACAAAAACATATTTTCT [CACACA_site8072] | 8.32 ± 0.4
16 | CAAAGGAAACCTATCTGTACACATATTGGGGGAAAA [XGTACX_site3502] | 9.31 ± 0.35
17 | GATTATTTCTAAAAAGTGCATATTTAAAAATCTCCT | 8.63 ± 0.057
18 | ATTGTTTTGTAATATGAAAAAATTGTGTAATGTGTC [CACACA_negctrl_site1510] | 8.73 ± 0.31
19 | TATTATATTATACATACACACCCATATAATATGTTT [CACACA_site8191] | 8.81 ± 0.33
20 | ATTTATATGAAAATATGTACTTATATAAATTTATTT [XGTACX_site53] | 8.35 ± 0.37
21 | AAATTCGTAATAATGTGTACATAACTATACATAATT [XGTACX_site1717] | 8.6 ± 0.33
22 | AAAAAATAGAATATGGGTACTAAAAAGATACAAACA [XGTACX_site4464] | 8.86 ± 0.49
23 | CGCAACGTGAAAATACGTACACATACATTTTTATAT [XGTACX_site330] | 8.39 ± 0.35
24 | AAATATTATGTACGCACACACATTTTTGATATATAA [CACACA_site7755] | 8.64 ± 0.28
25 | TATTCCTATATACAGCGTACAAAAAATAATATGTAT [XGTACX_site8112] | 8.69 ± 0.38
